Experimental data taken from PubChem BioAssay AID220 (DTP/NCI, 2004).
Records with an inconclusive call do not appear. For part of its entries the source gives two or more results. The list is limited to them. There may be further records. Values that stand side by side repeat one measurement in other runs, samples, wells, individuals or studies.

Tested on: CD8F1 mice, subcutaneous mammary adenocarcinoma, T/C%
Assay: NCI In Vivo Anticancer Drug Screen. Data for tumor model Mammary Adenocarcinoma CD8F1 (subcutaneous) in CD8F1
Settings: higher = larger tumour
Procedure: The antitumor activity of compounds was measured in mice bearing transplantable tumors. Survival or tumor size were measured and the results are expressed as the measurement made in the treated group (T) divided by the measurement made in the vehicle treated control group (C). The tumor model used in this assay is Mammary Adenocarcinoma CD8F1 (subcutaneous) in CD8F1

[1] = endpoint: median tumor weight (est.), dose: 25.0 mg/kg/injection, schedule: Q07DX005 (ip), vehicle: saline with Tween-80
[2] = endpoint: median tumor weight (est.), dose: 200.0 mg/kg/injection, schedule: Q07DX005 (ip), vehicle: saline with Tween-80
[3] = endpoint: median tumor weight (est.), dose: 50.0 mg/kg/injection, schedule: Q07DX005 (ip), vehicle: Klucel (hydroxypropylcellulose) (HPC)

CC(C)CCCCCCCCCCCCC(=O)NCC(=O)NC1C(C)OC(Nc2ncnc3nc[nH]c23)C(O)C1O (configuration not stated)
T/C (endpoint: median tumor weight (est.), dose: 0.5 mg/kg/injection, schedule: Q07DX005 (ip), vehicle: distilled water + Tween-80): 92 % of control and 120 % of control | T/C (endpoint: median tumor weight (est.), dose: 1.0 mg/kg/injection, schedule: Q07DX005 (ip), vehicle: distilled water + Tween-80): 72 % of control and 110 % of control | T/C (endpoint: median tumor weight (est.), dose: 2.0 mg/kg/injection, schedule: Q07DX005 (ip), vehicle: distilled water + Tween-80): 78 % of control and 122 % of control | T/C (endpoint: median tumor weight (est.), dose: 4.0 mg/kg/injection, schedule: Q07DX005 (ip), vehicle: distilled water + Tween-80): 42 % of control and 109 % of control

COC(=Nc1ccccc1)SSC(C)C
T/C (endpoint: median tumor weight (est.), dose: 12.5 mg/kg/injection, schedule: Q07DX005 (ip), vehicle: saline with Tween-80): 22 % of control and 52 % of control | T/C [1]: 45 % of control, 73 % of control, 76 % of control | T/C (endpoint: median tumor weight (est.), dose: 50.0 mg/kg/injection, schedule: Q07DX005 (ip), vehicle: saline with Tween-80): 48 % of control, 85 % of control, 119 % of control | T/C [2]: 28 % of control and 55 % of control | T/C (endpoint: median tumor weight (est.), dose: 400.0 mg/kg/injection, schedule: Q07DX005 (ip), vehicle: saline with Tween-80): 49 % of control and 83 % of control

CCCCCCCCCCCCCCCCS(=O)CC(O)COC(=O)c1ccc(C(=O)OCC(O)CS(=O)CCCCCCCCCCCCCCCC)cc1 (configuration not stated)
T/C (endpoint: median tumor weight (est.), dose: 50.0 mg/kg/injection, schedule: Q07DX005 (ip), vehicle: saline + Tween-80 + alcohol): 47 % of control and 75 % of control | T/C (endpoint: median tumor weight (est.), dose: 100.0 mg/kg/injection, schedule: Q07DX005 (ip), vehicle: saline + Tween-80 + alcohol): 84 % of control and 113 % of control

CCCC(=O)Oc1ccc(/C=N/NC(N)=S)nc1
T/C [1]: 83 % of control and 124 % of control | T/C (endpoint: median tumor weight (est.), dose: 100.0 mg/kg/injection, schedule: Q07DX005 (ip), vehicle: saline with Tween-80): 54 % of control and 120 % of control | T/C [2]: 70 % of control and 114 % of control

CN1c2c(nc(N)[nH]c2=O)NCC1CCNc1ccc(C(=O)NC(CCC(=O)O)C(=O)O)cc1 (configuration not stated)
T/C (endpoint: median tumor weight (est.), dose: 50.0 mg/kg/injection, schedule: Q07DX005 (ip), vehicle: saline): 26 % of control, 94 % of control, 99 % of control | T/C (endpoint: median tumor weight (est.), dose: 100.0 mg/kg/injection, schedule: Q07DX005 (ip), vehicle: saline): 38 % of control, 40 % of control, 114 % of control | T/C (endpoint: median tumor weight (est.), dose: 200.0 mg/kg/injection, schedule: Q07DX005 (ip), vehicle: saline): 42 % of control, 66 % of control, 188 % of control | T/C (endpoint: median tumor weight (est.), dose: 400.0 mg/kg/injection, schedule: Q07DX005 (ip), vehicle: saline): 63 % of control, 107 % of control, 109 % of control | T/C (endpoint: median tumor weight (est.), dose: 1600.0 mg/kg/injection, schedule: Q07DX005 (ip), vehicle: saline): 59 % of control and 108 % of control

CC(=O)OCC(=O)[C@@]12OC(C)(C)O[C@@H]1C[C@H]1[C@@H]3CC(C=O)=C4C=C(OCCCl)CC[C@]4(C)[C@@]3(F)[C@@H](O)C[C@@]12C
T/C (endpoint: median tumor weight (est.), dose: 12.5 mg/kg/injection, schedule: Q07DX005 (ip), vehicle: Klucel (hydroxypropylcellulose) (HPC)): 37 % of control and 150 % of control | T/C [3]: 29 % of control and 81 % of control

Cc1[nH]c(=O)[nH]c(=O)c1N(CCF)CCCl
T/C (endpoint: median tumor weight change, dose: 25.0 mg/kg/injection, schedule: Q01DX001 (ip), vehicle: Klucel (hydroxypropylcellulose) (HPC)): 50 % of control and 106 % of control

CCCCCCCC(=O)[O][Hg][CH2]C1COC([CH2][Hg][O]C(=O)CCCCCCC)CO1 (configuration not stated)
T/C [1]: 36 % of control and 100 % of control

C[CH2][Ge]1([CH2]C)[CH2]CC2(CCN(CCCN(C)C)C2)C[CH2]1
T/C (endpoint: median tumor weight (est.), dose: 8.0 mg/kg/injection, schedule: Q07DX005 (ip), vehicle: saline): 35 % of control and 77 % of control

C=C(NC(=O)C(=C)NC(=O)c1csc(C2=NC3c4csc(n4)C4NC(=O)c5csc(n5)C(C(C)(O)C(C)O)NC(=O)C5CSC(=N5)/C(=C/C)NC(=O)C(C(C)O)NC(=O)c5csc(n5)C3(CC2)NC(=O)C(C)NC(=O)C(=C)NC(=O)C(C)NC(=O)C(C(C)CC)NC2C=Cc3c(C(C)O)cc(nc3C2O)C(=O)OC4C)n1)C(N)=O (configuration not stated)
T/C (endpoint: median tumor weight (est.), dose: 25.0 mg/kg/injection, schedule: Q07DX005 (ip), vehicle: Klucel (hydroxypropylcellulose) (HPC)): 68 % of control and 96 % of control | T/C [3]: 74 % of control and 104 % of control | T/C (endpoint: median tumor weight (est.), dose: 100.0 mg/kg/injection, schedule: Q07DX005 (ip), vehicle: Klucel (hydroxypropylcellulose) (HPC)): 57 % of control and 108 % of control
